# In publication PMC4336329 (PLoS ONE, 2015):
# In all, about 310,000 compounds went through this assay and about 14,000 (4.5%) showed an effect of 50% or more. The effect is printed as a negative number. The list shows a part of the results.
# Molecular target: human ether-à-go-go-related gene (hERG) potassium channel (human, UniProt Q12809)
# Assay: primary screen, population patch clamp on CHO cells stably expressing hERG
# 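Note: peak tail current of the secondary pulse compared with the same well before compound.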
# Chain of human ether-à-go-go-related gene (hERG) potassium channel (Q12809 whole entry, looked up): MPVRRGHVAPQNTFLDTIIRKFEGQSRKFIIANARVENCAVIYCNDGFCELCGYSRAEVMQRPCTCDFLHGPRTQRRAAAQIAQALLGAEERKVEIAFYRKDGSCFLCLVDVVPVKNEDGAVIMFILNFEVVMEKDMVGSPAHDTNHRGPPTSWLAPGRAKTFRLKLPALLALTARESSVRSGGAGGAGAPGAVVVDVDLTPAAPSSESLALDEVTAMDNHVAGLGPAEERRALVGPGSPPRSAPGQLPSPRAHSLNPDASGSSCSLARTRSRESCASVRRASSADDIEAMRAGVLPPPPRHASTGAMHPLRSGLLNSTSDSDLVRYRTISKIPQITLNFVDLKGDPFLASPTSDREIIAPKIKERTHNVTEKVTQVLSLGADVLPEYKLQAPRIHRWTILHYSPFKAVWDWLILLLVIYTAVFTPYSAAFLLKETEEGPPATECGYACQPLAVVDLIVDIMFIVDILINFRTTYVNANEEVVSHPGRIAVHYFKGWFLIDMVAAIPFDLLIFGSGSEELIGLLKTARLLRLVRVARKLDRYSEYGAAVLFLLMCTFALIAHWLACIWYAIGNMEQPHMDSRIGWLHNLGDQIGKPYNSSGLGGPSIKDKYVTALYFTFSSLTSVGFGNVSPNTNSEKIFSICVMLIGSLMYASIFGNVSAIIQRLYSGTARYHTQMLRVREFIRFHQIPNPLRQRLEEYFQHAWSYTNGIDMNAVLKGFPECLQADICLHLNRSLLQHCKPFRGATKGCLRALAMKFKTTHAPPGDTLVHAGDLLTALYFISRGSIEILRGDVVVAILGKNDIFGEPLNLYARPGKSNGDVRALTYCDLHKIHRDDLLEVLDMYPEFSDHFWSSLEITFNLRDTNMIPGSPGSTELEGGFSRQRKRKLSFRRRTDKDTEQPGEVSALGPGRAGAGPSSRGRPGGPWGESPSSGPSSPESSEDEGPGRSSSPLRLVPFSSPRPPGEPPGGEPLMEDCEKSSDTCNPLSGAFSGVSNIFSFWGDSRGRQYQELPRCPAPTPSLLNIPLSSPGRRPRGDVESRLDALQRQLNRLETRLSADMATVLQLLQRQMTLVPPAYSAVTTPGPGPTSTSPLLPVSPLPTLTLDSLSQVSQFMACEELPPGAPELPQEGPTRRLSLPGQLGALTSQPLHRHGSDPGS
row,SMILES,"hERG current change (%, negative = inhibition) at 10uM [%]"
1,COc1cccc(CNC(=O)CCCN2C(=O)C(c3ccccc3)Oc3cccnc32)c1OC (centres unmarked),16.4
2,O=C(N1CCCCC1)C1(S(=O)(=O)c2ccccc2)CC=CC1,-4.51
3,O=C(NC1CCCCC1)C1CCCN(S(=O)(=O)c2cccs2)C1 (centres unmarked),11.3
4,CN1C(=O)[C@@H]2[C@@H]3C[C@@H]([C@H]4ON=C(c5ccc(Cl)cc5Cl)[C@@H]34)[C@@H]2C1=O,-28.6
5,Cc1cccc(NC(=O)c2ccc(COc3ccc(Cl)cc3Cl)o2)n1,17.8
6,O=C(/C=C/c1ccc(Cl)cc1)Nn1c(-c2cccs2)nc2ccccc2c1=O,16.9
7,O=C(Nc1ccc(N2CCCCC2)c(C(=O)O)c1)c1ccco1,3.38
8,Cc1cc(C(=O)OCC(=O)c2cccc([N+](=O)[O-])c2)c2ccccc2n1,6.56
9,C=CCn1c(C2CC(=O)N(c3ccc(C)cc3)C2)nc2ccccc21 (centres unmarked),-58.4
10,Cc1ccc(OCC(=O)O/N=C(\N)c2cccc([N+](=O)[O-])c2)cc1C,-0.145
11,Cc1ccc2nc(N/C(=N/S(=O)(=O)c3ccc(F)cc3)c3ccccc3)sc2c1,33.5
12,COc1ccc(OC)c(N(C(=O)c2snc(C(N)=O)c2N)C(C(=O)NCC2CCCO2)c2ccc3ncccc3c2)c1 (centres unmarked),14.4
13,O=C(Cn1c(=O)oc2cccnc21)Nc1ccc(C(F)(F)F)cc1,-4.91
14,COC(=O)c1ccc(N2C(=O)CC(N3CCN(C(=O)c4ccco4)CC3)C2=O)cc1 (centres unmarked),-21.2
15,O=C(CSc1nnc2c(n1)[nH]c1ccc(F)cc12)N1CCOCC1,5.63
16,CC(C)(O)C#Cc1ccc(CN2CCC(CO)(CCc3ccccc3)CC2)cc1,-39.8
17,CCCC12CN3CC(CCC)(CN(C1)C3c1ccco1)C2=O (centres unmarked),6.54
18,O=C(CCCCCN1C(=O)[C@@H]2Cc3ccccc3CN2C1=O)Nc1ccccc1F,3.4
19,COCc1[nH]c(=S)c(C#N)cc1C(=O)OC,13.3
20,O=C(CSc1ccccn1)c1ccc2c(c1)OCO2,0.963
21,COc1cccc(NS(=O)(=O)c2ccc3c(c2)n(C)c(=O)c(=O)n3C)c1,-6.59
22,COc1ccc(C2Nc3ccccc3C(=O)N2NS(=O)(=O)c2ccccc2)c(OC)c1 (centres unmarked),11.1
23,CN(C(=O)c1ccco1)c1nc(CC(=O)Nc2ccccc2)cs1,-21.1
24,Cl.O=C(CCN1CCc2ccccc2C1)Nc1ccc(F)c(F)c1,-49.4
25,CN(CCO)CC(O)CN(c1ccccc1)c1ccccc1.Cl (centres unmarked),-52.1
26,COC(=O)N/N=C/c1cc(C)n(-c2cccc3ccccc23)c1C,-14
27,Cc1ccc(CN2CCN(/N=C/c3ccc(O)c(O)c3)CC2)cc1,-21.7

row,SMILES,"hERG current change (%, negative = inhibition) at 10uM [%]"
1,O=C(NCC(c1ccco1)N1CCN(c2ccccc2)CC1)c1ccco1 (centres unmarked),-6.12
2,O=C(CCCOc1ccc(Cl)cc1Cl)N1CCCc2ccccc21,-15.5
3,Cc1cc(N2CCN(c3ccccc3)CC2)n2cc(-c3ccccc3)nc2n1,-75.3
4,CCCCCCCCC(=O)NNC(=O)c1c(O)c2ccccc2n(CC)c1=O,11.1
5,CCC1(c2ccc(F)cc2)NC(=O)N(CC(=O)c2cc(C)n(C3CC3)c2C)C1=O (centres unmarked),-22.5
6,CCCc1cc(C(=O)Nc2ccc(C(=O)OC)cc2)cs1,5.28
7,N/C(CN1CCCCC1)=N\S(=O)(=O)c1cc(Cl)cc(Cl)c1,22.1
8,CC(C)OCCCNc1ncc2c(n1)CC(c1ccc(N(C)C)cc1)CC2=O (centres unmarked),3.92
9,Cc1ccc(C(=O)N(c2ccccn2)C(C)c2ccco2)cc1 (centres unmarked),-0.464
10,Cc1cc(C)n(-c2ncnc3sc4c(c23)CC(C)CC4)n1 (centres unmarked),40.6
11,Cc1cc(C)cc(N2CCCn3c2nc2c3c(=O)n(CC(=O)OCc3ccccc3)c(=O)n2C)c1,-29.9
12,O=C(N/N=C\c1ccc(-c2ccc([N+](=O)[O-])cc2)o1)c1ccc2c(c1)OCO2,3.43
13,CC(NCCc1ccc(S(N)(=O)=O)cc1)C(=O)NCCc1ccc(F)cc1.O=C(O)C(=O)O (centres unmarked),0.754
14,Cc1ccc(C(c2sc3nc(C)nn3c2O)N2CCN(C(=O)c3ccco3)CC2)cc1 (centres unmarked),-31.4
15,COc1ccc(-c2nc3ccccc3c(=O)n2N)cc1,-13.7
16,COc1ccccc1Nc1nc(N)nc(CSc2nncn2C)n1,6.64
17,CCC(OCC(O)CN1CCN(CCN2C(=O)c3cccc4cccc(c34)C2=O)CC1)c1ccccc1.Cl (centres unmarked),-58.4
18,CCC1CCCCN1S(=O)(=O)c1ccc(-n2cnnn2)c(C)c1 (centres unmarked),19.8
19,CCCCN(C(=O)CCCSc1nc2ccccc2[nH]1)c1c(N)n(Cc2ccccc2)c(=O)[nH]c1=O,-29.3
20,Cn1c(N)c(C(=O)COC(=O)c2ccnc3ccccc23)c(=O)n(C)c1=O,3.11
21,NS(=O)(=O)c1ccc(NC(=O)COc2ncnc3sccc23)cc1,3.94
22,Cc1ccc(NS(=O)(=O)c2cn(C)c(=O)n(C)c2=O)cc1C,9.41
23,Cc1noc(C)c1CSCC(=O)Nc1nc2ccc(Oc3ccccc3)cc2s1,-13.6
24,Cc1ccc(NC(=O)/C(=C\c2ccc([N+](=O)[O-])cc2)NC(=O)c2ccccc2)cc1,-38.6
25,CCC(C)[C@H]1CNCCN1CC1(c2ccccc2)CC1 (some centres unmarked),12.1
26,O=C(NCc1ccncc1)c1ccc(N2CCCC2)c([N+](=O)[O-])c1,-23.3
